± gives the standard deviation of the averaged measurements. Over roughly 33,000 sequences, “E-score (dimensionless, -0.5 to 0.5)” has its median near -0.049; the highest 2% begin near 0.37. This is one part of the list.
tested on: T1, PmTbr T-box DNA-binding domain (GST fusion); assay: PBM E-score of 8-mer (E-score (dimensionless, -0.5 to 0.5)); Tbr is Tbrain of the sea star Patiria miniata (Pm) or the sea urchin Strongylocentrotus purpuratus (Sp); higher = stronger binding preference; most listed sequences are background and not binding sites; settings: the construct has about 5 more residues each side
T1 sequence: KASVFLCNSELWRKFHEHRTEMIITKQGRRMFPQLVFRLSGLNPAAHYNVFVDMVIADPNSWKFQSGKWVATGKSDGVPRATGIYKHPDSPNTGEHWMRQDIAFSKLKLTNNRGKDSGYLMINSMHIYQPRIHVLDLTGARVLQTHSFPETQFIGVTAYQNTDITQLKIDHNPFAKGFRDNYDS
Summary of the method: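 Using the Universal PBM Analysis Suite, every ungapped 8-mer received an enrichment E-score averaged over duplicate arrays. Probe intensities came from double-stranded Universal Agilent oligonucleotide arrays incubated with 200 nM GST-fused Tbr T-box DNA-binding domain in PBS (pH 7.5). That protein was expressed in BL21 E. coli at 20 °C and purified by glutathione affinity chromatography.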

Sequence	PBM E-score of 8-mer
ATACCGGC	-0.253 ± 0.04
CTGTTTAA	0.00696 ± 0.072
AATCGCAA	0.251 ± 0.028
AGTACGGG	-0.248 ± 0.013
TAAGCTAA	-0.272 ± 0.033
CCTTCGTA	0.139 ± 0.025
CTTTCGGC	0.0207 ± 0.014
CACATCTG	0.283 ± 0.0036
GTCGCCAC	0.326 ± 0.0074
AAGTAAAC	0.0187 ± 0.034
ATGGATAC	-0.4 ± 0.038
AAACAAAG	0.105 ± 0.095
TCTGGTAA	-0.00932 ± 0.047
AGGCACCG	-0.025 ± 0.035
GAGAGGCA	-0.202 ± 0.058
CCACACCA	0.29 ± 0.033
CGATAGTC	0.0501 ± 0.037
CGTGGCAA	0.122 ± 0.044
TCATTTAA	-0.282 ± 0.061
GTACCGAC	-0.0485 ± 0.12
AGAACTCT	-0.211 ± 0.067
ACGAGTGC	0.191 ± 0.044
ACTAAACC	-0.0721 ± 0.022
TATAACGA	-0.13 ± 0.019
ATCGGCTA	-0.0955 ± 0.062
CCCACCTA	0.184 ± 0.016
CCGTTGAA	-0.251 ± 0.11
CAGAATCC	-0.115 ± 0.042

Sequence	PBM E-score of 8-mer
CATATAGC	-0.188 ± 0.077
ATGGTTAC	-0.265 ± 0.029
CGCCACCA	0.269 ± 0.004
GCGTAACC	-0.00498 ± 0.032
ACAGTAAA	-0.2762 ± 0.0019
AAGGGCAG	-0.149 ± 0.0087
CGACTTAC	-0.00392 ± 0.086
GGATTGGA	-0.185 ± 0.014
GAGTGACC	-0.0846 ± 0.0063
GGCAATTA	0.111 ± 0.051
CTGCAGGA	-0.155 ± 0.032
CATACACG	-0.121 ± 0.1
GTAAGCGA	0.0395 ± 0.019
CCATAAAC	-0.115 ± 0.089
CGAGCTCA	-0.0103 ± 0.029
CAGGTAAG	0.0622 ± 0.0032
AGGCGGTA	0.0799 ± 0.026
AATAGCGT	0.104 ± 0.015
TCCGAGAA	0.0357 ± 0.047
GAATGACA	0.196 ± 0.027
GGTCCCAC	0.252 ± 0.042
GGGTGGCA	0.322 ± 0.024
CGACCCGA	-0.114 ± 0.032
AAGAATGT	-0.0657 ± 0.011
CCAGGCGG	-0.022 ± 0.0044
AGACGCGC	0.0897 ± 0.037
AGGTCGAA	-0.0933 ± 0.056

From the supplement of paper PMC4166925
